Out of some 310,000 compounds screened, about 2,200 (0.71%) showed an effect of 50% or more. Effects have a minus sign here. Some of the results follow.

For the test, the target named is human ether-à-go-go-related gene (hERG) potassium channel (human, UniProt Q12809). The experiment in a line: primary screen, population patch clamp on CHO cells stably expressing hERG.
Sequence of human ether-à-go-go-related gene (hERG) potassium channel (Q12809 whole entry, looked up): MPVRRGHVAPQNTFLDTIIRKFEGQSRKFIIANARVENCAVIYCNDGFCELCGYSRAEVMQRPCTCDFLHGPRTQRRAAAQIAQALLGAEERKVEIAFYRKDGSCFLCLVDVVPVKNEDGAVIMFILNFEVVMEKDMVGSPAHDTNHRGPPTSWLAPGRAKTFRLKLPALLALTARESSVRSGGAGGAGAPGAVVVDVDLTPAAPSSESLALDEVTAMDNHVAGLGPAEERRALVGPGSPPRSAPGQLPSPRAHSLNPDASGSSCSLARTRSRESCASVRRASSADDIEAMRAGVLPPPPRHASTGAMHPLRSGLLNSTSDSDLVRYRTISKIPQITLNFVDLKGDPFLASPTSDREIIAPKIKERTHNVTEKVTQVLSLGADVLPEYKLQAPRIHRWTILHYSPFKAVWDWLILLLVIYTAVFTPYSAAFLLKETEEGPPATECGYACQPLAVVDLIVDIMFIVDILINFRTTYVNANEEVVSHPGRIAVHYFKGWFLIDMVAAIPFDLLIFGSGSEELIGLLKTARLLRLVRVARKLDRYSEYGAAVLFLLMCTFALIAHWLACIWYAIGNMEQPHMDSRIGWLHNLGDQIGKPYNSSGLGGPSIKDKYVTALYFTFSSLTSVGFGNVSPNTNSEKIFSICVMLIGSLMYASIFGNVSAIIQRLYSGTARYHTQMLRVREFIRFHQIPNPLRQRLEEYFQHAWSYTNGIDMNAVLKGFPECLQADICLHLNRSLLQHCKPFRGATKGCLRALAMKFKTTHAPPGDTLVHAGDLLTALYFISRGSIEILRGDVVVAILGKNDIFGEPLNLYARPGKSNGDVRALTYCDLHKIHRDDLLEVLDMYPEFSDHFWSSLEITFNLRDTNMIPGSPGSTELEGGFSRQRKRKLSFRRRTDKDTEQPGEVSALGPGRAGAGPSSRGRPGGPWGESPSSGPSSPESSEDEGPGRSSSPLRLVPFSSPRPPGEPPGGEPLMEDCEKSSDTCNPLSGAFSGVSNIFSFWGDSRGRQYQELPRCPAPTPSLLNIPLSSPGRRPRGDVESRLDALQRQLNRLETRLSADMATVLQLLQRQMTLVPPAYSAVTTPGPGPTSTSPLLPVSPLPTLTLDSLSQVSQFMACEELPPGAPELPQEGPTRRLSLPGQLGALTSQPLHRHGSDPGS
Consider `CC(=O)Nc1cccc(C(=O)/C=C/c2ccco2)c1`, for which the “hERG current change (%, negative = inhibition) at 1uM” value was found to be 13.5%. On to `O=C(c1ccc([N+](=O)[O-])cc1[N+](=O)[O-])n1cnc2ccccc21`, for which the “hERG current change (%, negative = inhibition) at 1uM” value is listed as 5.85%. As for `Cc1cccc(NC(=O)c2nc[nH]c2C(=O)N[C@@H](C)C(=O)OCc2ccccc2)c1`, the “hERG current change (%, negative = inhibition) at 1uM” value worked out at 12.4%. `O=C(CN1C(=O)C2C3C=CC(C3)C2C1=O)Nc1ccc(C(=O)O)cc1` (stereo not shown): the “hERG current change (%, negative = inhibition) at 1uM” value is 7.4%. As to `O=C(Cn1ccc2ccccc2c1=O)Nc1ccc2c(c1)OCO2`, the “hERG current change (%, negative = inhibition) at 1uM” value was determined as 12%. With `O=[N+]([O-])c1ccccc1/C=C/C=N/n1c(-c2ccc(Cl)cc2)n[nH]c1=S`, the “hERG current change (%, negative = inhibition) at 1uM” value is 13.2%. Take `CC(C)NC(=O)NC(=O)CSc1nnc(-c2ccccc2F)n1N`: the “hERG current change (%, negative = inhibition) at 1uM” value was 6.05%.

As to `COc1ccccc1NC(=O)C[n+]1ccccc1.[Cl-]`, the “hERG current change (%, negative = inhibition) at 1uM” value is listed as 10.9%.

For `O=C(CCCCCN1C(=O)c2ccccc2C1=O)Nc1ccc(C(=O)O)cc1`, the “hERG current change (%, negative = inhibition) at 1uM” value is 11.6%. As to `Cc1cc(=O)oc2cc(OCC(=O)OC(C)C(=O)NC3CCCC3)ccc12` (stereo not shown), the “hERG current change (%, negative = inhibition) at 1uM” value was determined as 10.5%. Consider `CCN(CC)S(=O)(=O)c1cc(C(=O)OCC(=O)c2ccc3c(c2)NC(=O)CO3)ccc1Cl`, for which the “hERG current change (%, negative = inhibition) at 1uM” value stood at 0.505%. Consider `O=C(/C=C/c1ccc([N+](=O)[O-])s1)N1CCCCC1`, for which the “hERG current change (%, negative = inhibition) at 1uM” value is reported as 0.636%. The value for `O=C(NC1CCCC1)C(c1ccncc1)N(CC1CCCO1)C(=O)Cn1nnc(-c2cccs2)n1` (stereo not shown) was 3.3%; that for `Cc1ccc(NC(=O)CN(C)CC(=O)Nc2cccc(F)c2)cc1S(=O)(=O)N1CCCCCC1.O=C(O)C(=O)O` was 14.4%; that for `O=C(c1ccc([N+](=O)[O-])cc1[N+](=O)[O-])N1CCc2ccccc21` was 14.5%. Consider `Cc1ccnc(NS(=O)(=O)c2ccc(NC(=O)c3ccc(S(=O)(=O)N(C)C)cc3)cc2)n1`, for which the “hERG current change (%, negative = inhibition) at 1uM” value is 12.3%. Turning to `CSc1ncccc1C(=O)OCC(=O)NCCC1=CCCCC1`, the “hERG current change (%, negative = inhibition) at 1uM” value was 8.39%. The value for `CCO[C@H]1OC(C(=O)N2CCOCC2)=C[C@@H](c2coc3ccccc3c2=O)[C@@H]1CCCO` was 9.84%. Regarding `CC(=O)Nc1ccc(S(=O)(=O)NC(C)C(=O)NCCc2ccc(F)cc2)cc1` (stereo not shown), the “hERG current change (%, negative = inhibition) at 1uM” value amounted to 8.53%. The value for `O=C(NCC1CCCO1)c1ccc(CS(=O)(=O)c2ccc(Cl)cc2)o1` (stereo not shown) was 5.31%. In the case of `Nn1c(SCc2nc3ccccc3[nH]2)nnc1-c1cccnc1`, the “hERG current change (%, negative = inhibition) at 1uM” value was -2.13%. Take `C#CC(CCN1CCCCC1)(OC)c1ccccc1.Cl` (stereo not shown): the “hERG current change (%, negative = inhibition) at 1uM” value stood at 3.65%. Consider `COC(=O)c1cc(NC(=O)c2ccc(-c3ccccc3)cc2)ccc1Cl`, for which the “hERG current change (%, negative = inhibition) at 1uM” value is reported as 7.01%. The value for `COc1cccc(NC(=O)C2CCCN(c3ncnc4c3nc3n4CCCCC3)C2)c1` (stereo not shown) was -5.25%. `Cc1nnc(N(CCC#N)CCC#N)s1`: the “hERG current change (%, negative = inhibition) at 1uM” value is 17%.

As to `O=C(CSC(=S)N1CCCC1)N1CCN(S(=O)(=O)c2cccc(F)c2)CC1`, the “hERG current change (%, negative = inhibition) at 1uM” value amounted to 4.46%. Take `O=S(=O)(c1ccc2c(c1)oc1ccccc12)N1CCOCC1`: the “hERG current change (%, negative = inhibition) at 1uM” value is recorded as -1.75%. Consider `CN(C)c1nc(N)nc(CSc2nnnn2-c2ccc(F)cc2)n1`, for which the “hERG current change (%, negative = inhibition) at 1uM” value was 2.28%.

`CS(=O)(=O)N(CCc1ccccc1)CC(=O)NCc1ccc(Cl)cc1`: the “hERG current change (%, negative = inhibition) at 1uM” value was -15.1%. Then `Cc1nnc(SCC(=O)Nc2ccc3[nH]c(=O)[nH]c3c2)s1`, with 13.2%; and `NNC(=S)Nc1ccc(C(F)(F)F)cc1Cl`, with 12.1%.

Consider `O=c1[nH]cc(COCC(F)CCl)c(=O)[nH]1` (stereo not shown), for which the “hERG current change (%, negative = inhibition) at 1uM” value was found to be 11.5%. Regarding `S=C(NCCc1ccccc1)Nc1c(Cl)cccc1Cl`, the “hERG current change (%, negative = inhibition) at 1uM” value stood at 12.3%. The value for `CC(=O)Nc1ccc(NS(=O)(=O)c2ccc(CN3C(=O)c4cccnc4C3=O)cc2)cc1` was 16.3%; that for `CCOC(=O)N1CCN(C(=O)c2cn(C)c(=O)c3c2c2ccccc2n3C)CC1` was 7.87%; that for `COc1ccc(S(=O)(=O)N2CCN(C(=O)CCNC(=O)c3ccccc3Cl)CC2)cc1` was 5.17%. In the case of `CCn1nc(C)c(NC(=O)CC23CC4CC(CC(C4)C2)C3)c1C`, the “hERG current change (%, negative = inhibition) at 1uM” value was determined as 13.9%. Regarding `CC(=O)Nc1nnc(-c2c(-c3ccccc3Cl)noc2C)o1`, the “hERG current change (%, negative = inhibition) at 1uM” value is 13.5%. In the case of `O=C(N/N=C/c1ccco1)c1cc2ccccc2o1`, the “hERG current change (%, negative = inhibition) at 1uM” value was found to be 15%. On to `CCOC(=O)c1cnc(SC)nc1NCCOC`, for which the “hERG current change (%, negative = inhibition) at 1uM” value is reported as 11.2%. `COc1ccccc1-c1nnc(SCC(=O)O)n1-c1ccc(C)cc1`: the “hERG current change (%, negative = inhibition) at 1uM” value amounted to 8.66%. Consider `COC(=O)C1=C(C)N=C2SC(C#N)=C(N)N2C1c1ccc(OCc2ccccc2)cc1` (stereo not shown), for which the “hERG current change (%, negative = inhibition) at 1uM” value was determined as 3.21%. For `O=C(COC(=O)c1cccs1)Nc1cccc(Cl)c1`, the “hERG current change (%, negative = inhibition) at 1uM” value is recorded as 11.2%. Then `CC(C)(C)c1ccc(C(=O)Nc2cccc([N+](=O)[O-])c2)cc1`, with 4.04%; and `COc1ccccc1NC(=O)CSc1ccc2nnc(-c3ccc(C)cc3)n2n1`, with 4.45%. Turning to `Cc1ccc(OCC(=O)OC(C)C(=O)NC2CCCCC2C)cc1C` (stereo not shown), the “hERG current change (%, negative = inhibition) at 1uM” value was 5.55%.

On to `O=C(NNC(=O)c1cc2ccccc2cc1O)NC1CCCCC1`, for which the “hERG current change (%, negative = inhibition) at 1uM” value was 16.4%. Consider `Cc1c(Cc2ccccc2)sc(NC(=O)c2ccco2)c1C(N)=O`, for which the “hERG current change (%, negative = inhibition) at 1uM” value turned out to be 13.1%. On to `OCC[C@H]1C[C@@H](O)[C@H](O)[C@@]2(CCc3ccccc3CO2)O1`, for which the “hERG current change (%, negative = inhibition) at 1uM” value amounted to 0.873%. In the case of `Cc1ccc(C2CCN(C(=S)NC(C)(C)C)C2)cc1` (stereo not shown), the “hERG current change (%, negative = inhibition) at 1uM” value turned out to be 4.67%. Take `COc1ccc(CCN=C(C)c2cc(C)c(C)cc2O)cc1OC`: the “hERG current change (%, negative = inhibition) at 1uM” value was 15.9%. The value for `CCOc1ccccc1NC(=O)Cn1c(-c2ccc(Cl)cc2)noc1=O` was 0.524%; that for `O=C(O)C[C@H]1c2cc(F)ccc2S(=O)(=O)N1C1CCN(Cc2ccccc2)CC1` was 9.36%; that for `CNC(=O)COC(=O)COc1ccc2c(C)cc(=O)oc2c1` was 9.96%. Turning to `COc1ccccc1NC(=O)N1C2CCCC1CC(NC(=O)c1ccccc1)C2` (stereo not shown), the “hERG current change (%, negative = inhibition) at 1uM” value is given as 9.36%. Regarding `COc1ccccc1NC(=O)Nc1nc(CC(=O)Nc2ccc(F)cc2)cs1`, the “hERG current change (%, negative = inhibition) at 1uM” value is 5.17%. Then `O=C(NC(Cc1c[nH]c2ccccc12)C(=O)O)c1ccc2c(c1)OCO2` (stereo not shown), with 15%; and `Nc1nc(N)nc(-c2cc(Cl)ccc2Cl)n1.O=C(O)/C=C\C(=O)O`, with -0.0952%.

`COc1ccc(N2CCN(c3cc(C)c4ccc(O)cc4n3)CC2)cc1`: the “hERG current change (%, negative = inhibition) at 1uM” value is given as -6.77%. For the compound `CC(C)(CC(=O)O)CC(=O)NNc1ncccc1C#N`, the “hERG current change (%, negative = inhibition) at 1uM” value amounted to 12.3%.

For `COC(=O)c1ccc(N2CCN(S(=O)(=O)c3ccc(C)cc3)CC2)c([N+](=O)[O-])c1`, the “hERG current change (%, negative = inhibition) at 1uM” value amounted to 10.3%. Then `Cc1cc(N2CCCC2)nc2ccccc12`, with -4.05%; and `CC(C)CCNC(=O)C(=O)NCCC1=CCCCC1`, with 10.1%. Regarding `Cc1cccc(C(=O)N2CCN(S(=O)(=O)c3ccc4c(c3)OCCCO4)CC2)c1[N+](=O)[O-]`, the “hERG current change (%, negative = inhibition) at 1uM” value is given as 11.9%.

On to `O=C(CCCNC(=O)c1ccc(Cl)cc1)Nc1ccccc1F`, for which the “hERG current change (%, negative = inhibition) at 1uM” value was 11.3%. In the case of `CC1CC(C)CN(CCCNC(=O)Cc2c(C(=O)O)[nH]c3ccccc23)C1` (stereo not shown), the “hERG current change (%, negative = inhibition) at 1uM” value worked out at 13%. Then `Cc1ccc(-c2c3c(=O)n(C)c(=O)n(C)c3cn2Cc2ccccn2)cc1`, with 4.86%. The value for `CN1CC2(C)CN(C(c3ccccc3)c3ccccc3)CC(C)(C1)C2O` (stereo not shown) was 4.82%; that for `O=C(COc1ccc2ccccc2c1)NCC1CCCO1` (stereo not shown) was 12%; that for `COC(=O)c1cc(S(=O)(=O)NCC2CCN(Cc3cccc(F)c3)CC2)cn1C` was 2.34%. Consider `CCOc1ccccc1CNC(=O)c1ccccc1NC(=O)C1=CSCCO1`, for which the “hERG current change (%, negative = inhibition) at 1uM” value was determined as 28.2%. `O=C(COc1ccccc1[N+](=O)[O-])NCCCN1CCCC1=O`: the “hERG current change (%, negative = inhibition) at 1uM” value came out at 9.5%. The value for `Cc1ccc(S(=O)(=O)N2CCCCC2)cc1NC(=O)c1ccc(Br)o1` was 2.25%.

As to `CCOC(=O)c1nn(-c2ccc(OCC)cc2)c(C)c1C(C)=O`, the “hERG current change (%, negative = inhibition) at 1uM” value came to 7.59%. For the compound `Cc1ccccc1-n1c(C)nnc1SCC(=O)N1CC(=O)Nc2ccccc21`, the “hERG current change (%, negative = inhibition) at 1uM” value worked out at 11.6%. With `COc1ccc(C(=O)OC(C)C(=O)NC(C)CCc2ccccc2)cc1[N+](=O)[O-]` (stereo not shown), the “hERG current change (%, negative = inhibition) at 1uM” value is on record as 4.49%. Take `CC(C)CNS(=O)(=O)c1ccc(S(=O)(=O)N2CCN(C3CCCC3)CC2)cc1`: the “hERG current change (%, negative = inhibition) at 1uM” value is given as 8.36%. Turning to `CCCNC(=O)C1CCN(S(=O)(=O)c2ccc3nc4c(c(C(=O)O)c3c2)CCCCC4)CC1`, the “hERG current change (%, negative = inhibition) at 1uM” value came out at 13.9%. The value for `COc1ccc(CCNC(=O)CCCn2c(=O)c3cccn3c3cccnc32)c(OC)c1` was 6.3%; that for `O=c1oc(-c2ccco2)nc2sc3c(c12)CCCC3` was 11.5%. In the case of `CN1/C(=C\C(=O)COC(=O)c2ccco2)C(C)(C)c2ccccc21`, the “hERG current change (%, negative = inhibition) at 1uM” value came to 5.74%. On to `O=C(NC(=S)Nc1cccnc1Cl)c1ccc(Cl)cc1`, for which the “hERG current change (%, negative = inhibition) at 1uM” value was determined as 12%. As for `Cc1cccc(Oc2nc(CN3CCOCC3)nc3sc4c(c23)CCCC4)c1`, the “hERG current change (%, negative = inhibition) at 1uM” value is recorded as 7.84%. As for `CC(=O)Nc1ccc(-c2cc(C(=O)O)c3ccc(C)cc3n2)cc1`, the “hERG current change (%, negative = inhibition) at 1uM” value came out at 12.6%. As for `O=C(O)c1ccccc1NC(=O)N1CCOCC1`, the “hERG current change (%, negative = inhibition) at 1uM” value worked out at 7.59%.

With `CCOc1ccc(OCC)c(NC(=O)CCS(=O)(=O)c2ccc(C)cc2)c1`, the “hERG current change (%, negative = inhibition) at 1uM” value amounted to 11.3%. As to `CN(C)CCCNc1oc(/C=C/c2cccs2)nc1S(=O)(=O)c1ccccc1`, the “hERG current change (%, negative = inhibition) at 1uM” value is -10.4%. With `Cc1ccccc1Nc1cc(C)c2c(O)cccc2n1`, the “hERG current change (%, negative = inhibition) at 1uM” value came to 3.37%.

(Values after PMC4336329 (PLoS ONE, 2015).)
